# Reference: PubChem BioAssay AID2675 (National Center for Advancing Translational Sciences (NCATS), 2010)
# In all, about 280,000 compounds went through this assay and about 100 (0.036%) were called active. This list was built around the results that the source calls inconclusive (neither active nor inactive); the mix of calls is not that of the screen. Calls come from the whole dose curve; as a rule, active = well fitted inhibition curve with a large enough effect in the signal ratio, with a control signal flat (not every such curve was filed as active); inconclusive = small, poorly fitted or top-dose-only effect, or effect the other way, or a change in a side signal; inactive = no such curve, though single readings can be large or run the other way; the % refers to the signal ratio. Where the call is inconclusive, the potency comes from a doubtful curve fit. “Side channel” marks fits to a control or component signal instead of the main read-out.
# Target: Muscleblind-like protein 1 (Homo sapiens) (UniProt Q9NR56)
# UniProt Q9NR56, sequence (Q9NR56 whole entry, looked up): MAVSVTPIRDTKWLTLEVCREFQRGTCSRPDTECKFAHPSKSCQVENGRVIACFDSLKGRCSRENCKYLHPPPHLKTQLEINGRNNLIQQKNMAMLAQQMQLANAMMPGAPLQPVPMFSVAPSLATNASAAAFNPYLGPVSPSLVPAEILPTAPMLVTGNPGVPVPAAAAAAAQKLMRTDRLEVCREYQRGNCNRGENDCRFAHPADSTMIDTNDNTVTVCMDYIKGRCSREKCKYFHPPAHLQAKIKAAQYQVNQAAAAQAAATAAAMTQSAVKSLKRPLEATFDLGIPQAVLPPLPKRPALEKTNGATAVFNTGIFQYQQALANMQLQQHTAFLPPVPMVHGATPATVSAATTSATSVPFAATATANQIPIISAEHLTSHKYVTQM
# Experiment: qHTS Assay for Inhibitors of MBNL1-poly(CUG) RNA binding
# Conditions: TR-FRET MBNL1-His/biotin-(CUG)12 binding, 665/545 ratio; activity change, negative = inhibition: at 57.5 µM (top of the series)
# Method in brief: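 MBNL1-His + Biotin-(CUG)12, cpd titration 92 nM–58 uM; Tb anti-His Ab 0.055 ng/ul, SA-XL665 5 nM (final); 60 min RT; ratiometric 665/545 nm, Ex 340 nm; normalized to buffer and full-complex controls.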
# % is set by controls: 0 for no effect and ±100 for the full control effect; potency is the fitted concentration of half-maximal effect; tags give direction and shape of the fitted curve or compound fluorescence and quenching.
Compound,Potency,"activity change, negative = inhibition"
O=C(/C=C/c1ccco1)OCC(=O)c1cccc([N+](=O)[O-])c1,"inconclusive: 14.1 µM [quencher, side channel, partial curve]",
COc1ccc(NC(=O)Nn2cnnc2)cc1OC,active: 39.8 µM,
O=C(NCCO)c1ccc2c3n(nc2c1)-c1ccc(Cl)cc1CO3,"inconclusive: 15.8 µM [quencher, side channel, partial curve]",
CNC(=S)N=Nc1c(O)[nH]c2ccccc12,"inconclusive: 12.6 µM [quencher, side channel, partial curve]",
O=[N+]([O-])c1cccc(-c2ncc3ccccn23)c1,"inconclusive: 14.1 µM [quencher, side channel, partial curve]",
CN(C)S(=O)(=O)c1ccc(C(=O)Nc2nc3ccccc3[nH]2)cc1,,inactive: 1.1%
N#C/C(=C\c1ccc(-c2ccc(S(=O)(=O)N3CCOCC3)cc2)o1)C(=O)NC1CC1,"inconclusive: 20 µM [quencher, side channel, partial curve]",
Cc1ccc(-c2ccc(/C=C3\SC(N4CCOCC4)=NC3=O)o2)cc1,"inconclusive: 15.8 µM [quencher, side channel, partial curve]",
CC(C)C(=O)Nc1ccc([N+](=O)[O-])cc1Br,"inconclusive: 20 µM [quencher, side channel, partial curve]",
CCCC(=O)Nc1ccc(-c2cn3cccnc3n2)cc1,"inconclusive: 39.8 µM [quencher, side channel, partial curve]",
NS(=O)(=O)c1cc(C(=O)OCC(=O)Nc2ccc(Cl)cc2[N+](=O)[O-])ccc1Cl,"inconclusive: 10 µM [quencher, partial curve]",
CCOc1ccccc1N1CCN(C2=C(NS(=O)(=O)c3cccs3)C(=O)c3ccccc3C2=O)CC1,"inconclusive: 25.1 µM [quencher, side channel, partial curve]",
O=C(CN1C(=O)c2cccc([N+](=O)[O-])c2C1=O)N1CCN(c2ccc(F)cc2)CC1,"inconclusive: 11.2 µM [quencher, side channel, partial curve]",
N=C1C(c2ccccc2)=C(O)CN1c1cccc2ccccc12,"inconclusive: 11.2 µM [quencher, side channel, partial curve]",
COc1ccc(N(C)C(=O)CCC(=O)Nc2ccc3nc(N4CCOCC4)cc(C)c3c2)c(OC)c1,,inactive: -2.09%
O=C(Cn1nnc(-c2ccccc2)n1)N/N=C/c1cccc([N+](=O)[O-])c1O,,inactive: 0.811%
CN(C)CCNC(=O)c1ccc(Cl)s1,,inactive: -10.9%
CC(C)CCN1C(=O)c2ccc(C(=O)Nc3ccc(Br)cc3C(=O)O)cc2C1=O,"inconclusive: 39.8 µM [fluorescent, side channel, single point]",
O=C(NCCCCc1ccccc1)C1CC(c2ccc([N+](=O)[O-])cc2)=NO1 (stereo not given),"inconclusive: 20 µM [quencher, side channel, partial curve]",
Cc1cc(N2CCCC2)ccc1/C=N/n1cnnc1,"inconclusive: 15.8 µM [quencher, side channel, partial curve]",

Compound,Potency,"activity change, negative = inhibition"
Cn1cnc([N+](=O)[O-])c1S(=O)(=O)c1ccc(Cl)cc1,"inconclusive: 17.8 µM [quencher, side channel, partial curve]",
C=CCSc1nnc(-c2ccccc2N=Cc2c(C)[nH]n(-c3ccccc3)c2=O)c(=O)[nH]1,"inconclusive: 15.8 µM [quencher, side channel, partial curve]",
CCc1nc(SCC(=O)Nc2ccc([N+](=O)[O-])cc2)n[nH]1,"inconclusive: 31.6 µM [quencher, side channel, partial curve]",
Fc1cc2nccnc2cc1N1CCSCC1,"inconclusive: 20 µM [quencher, side channel, single point]",
CC1CC1C(=O)OCc1cc(=O)n2cc(Br)ccc2n1 (stereo not given),"inconclusive: 17.8 µM [quencher, side channel, partial curve]",
CCC(C)(C)NC(=O)C(c1ccco1)N(C(=O)CNC(=O)c1cccs1)c1cccnc1 (stereo not given),"inconclusive: 2.51 µM [quencher, side channel, full curve, poor fit]",
Cc1ccc(S(=O)(=O)Nc2ccccc2CNc2cccc(C)n2)cc1,,inconclusive: -3.54% [phenotype inactive]
NS(=O)(=O)c1ccc(N2C(=O)C(=O)/C(=C(/O)c3ccccc3)C2c2ccc(Cl)cc2)cc1 (stereo not given),"inconclusive: 12.6 µM [quencher, side channel, partial curve]",
Cc1ccnc(NC(=S)NC(=O)/C=C/c2ccc(Cl)cc2)c1,"inconclusive: 5.01 µM [fluorescent, side channel, partial curve]",
Cc1ccc2[nH]c(=O)c(CC=C(Cl)Cl)c(C)c2c1,"inconclusive: 5.01 µM [fluorescent, side channel, single point]",
O=C(/C=C/c1ccc([N+](=O)[O-])cc1)NCc1cccnc1,"inconclusive: 10 µM [quencher, side channel, partial curve]",
CCOc1ccc(NC(=S)N2CCN(CCN3C(=O)c4cccc5cccc(c45)C3=O)CC2)cc1,"inconclusive: 3.55 µM [quencher, side channel, full curve]",
Cc1cc(C)nc(NC(=O)c2ccc([N+](=O)[O-])c(C)c2)n1,"inconclusive: 15.8 µM [quencher, side channel, partial curve]",
COc1ccc(-c2cnn3c(N)c(S(=O)(=O)c4ccccc4)cnc23)cc1,,inactive: 6.29%
COc1ccc(/C=C2\Oc3cc(OCC(=O)N4CCC[C@H]4C(=O)O)ccc3C2=O)cc1OC,"inconclusive: 15.8 µM [quencher, side channel, partial curve]",
Cc1ccc(-c2cc(-c3ccccc3Cl)c(C#N)c(N)n2)o1,,inactive: 29.4%
COc1ccc(C(CC(=O)Nc2ccc(Cl)cc2F)NC(=O)C(F)(F)F)cc1 (stereo not given),"inconclusive: 0.631 µM [quencher, side channel, full curve]",
O=C1C(Cl)=C(N2CCCC2)C(=O)N1c1ccc(F)cc1,"inconclusive: 7.08 µM [quencher, partial curve]",
N=C1/C(=C/c2cccn2Cc2ccc(F)cc2)C(=O)N=C2SC=CN12,,inactive: 14.5%
CN1/C(=C/c2cccc[n+]2C)Sc2ccccc21,"inconclusive: 14.1 µM [quencher, side channel, partial curve]",

Compound,Potency,"activity change, negative = inhibition"
Cc1ccn2c(NC3CCCC3)c(-c3ccncc3)nc2c1,"inconclusive: 14.1 µM [quencher, side channel, partial curve, poor fit]",
Cn1cnnc1SCC(=O)NNC(=O)COc1ccc(Br)cc1,"inconclusive: 35.5 µM [fluorescent, single point]",
Cc1nn(CC(=O)N(C)Cc2ccc(F)cc2)c(C)c1[N+](=O)[O-],,inconclusive: 0.954% [phenotype inactive]
CC[n+]1c(/C=C/Nc2ccccc2)oc2ccc(OC)cc21,,inactive: 17.3%
CC(C)(C)NCc1cc(Cl)ccc1OCc1cccs1,"inconclusive: 0.316 µM [fluorescent, side channel, full curve]",
O=C(Nc1cc(SCC(O)CO)cc([N+](=O)[O-])c1)c1ccc(-n2cnnn2)cc1 (stereo not given),"inconclusive: 14.1 µM [quencher, side channel, partial curve]",
COc1ccc(/C=C/C(=O)Nc2cc(S(=O)(=O)N3CCCCC3)ccc2N2CCCCC2)cc1OC,,inactive: -1.85%
COC(=O)C(C)N1C(=O)S/C(=C\c2cc(C)n(-c3ccccn3)c2C)C1=O (stereo not given),"inconclusive: 22.4 µM [quencher, side channel, single point]",
COc1ccc2[nH]c3nc(SCC(=O)Nc4cccc(NC(C)=O)c4)nnc3c2c1,"inconclusive: 2.82 µM [quencher, side channel, full curve]",
O=C(Nc1nc2ccccc2s1)c1cc(-c2ccco2)nc2ccccc12,,inactive: 16.6%
CCC(c1nnnn1Cc1ccc(OC)cc1)N(CCCO)Cc1cc2cc3c(cc2[nH]c1=O)OCO3 (stereo not given),"inconclusive: 25.1 µM [quencher, side channel, single point]",
Cc1cccc(C)c1NC(=O)CSc1nnc(-c2ccco2)c(-c2ccco2)n1,"inconclusive: 12.6 µM [quencher, side channel, partial curve]",
O=C(COC(=O)c1ccccc1C(=O)c1ccc(Cl)cc1)NCCc1ccccc1,,inactive: -8.37%
COCCNC(=O)c1snc2ccc(Cl)cc12,"inconclusive: 14.1 µM [quencher, side channel, partial curve]",
COc1ccc(/C=N/NC(=O)CC(=O)NCc2cccnc2)cc1[N+](=O)[O-],"inconclusive: 15.8 µM [quencher, side channel, partial curve]",
O=C1OC(Nc2ccc(F)c([N+](=O)[O-])c2)c2ccccc21 (stereo not given),"inconclusive: 15.8 µM [quencher, side channel, partial curve]",
CCCOc1ccc(N2C(=O)CC(SCCN)C2=O)cc1 (stereo not given),"inconclusive: 79.4 µM [inhibitor, partial curve]",
O=C(c1ccc(N2CCN(C(=O)c3cccc(F)c3)CC2)cc1)c1cccc(F)c1,,inactive: 9.8%
COC(=O)c1ccc(Nc2nc(-c3ccncc3)nc3ccccc23)cc1,"inconclusive: 158 µM [inhibitor, partial curve]",
O=C1N/C(=C\c2ccccc2)c2ccccc21,"inconclusive: 28.2 µM [quencher, side channel, single point]",
